# The supplement of paper PMC3334620
# The full ranking holds about 33,000 sequences; the median of “E-score (-0.5 to 0.5)” is about -0.012, and the highest 2% start at about 0.27. The list shows a part of the results.
# Target: T1, Vhr1 (UniProt P40522)
# T1 sequence: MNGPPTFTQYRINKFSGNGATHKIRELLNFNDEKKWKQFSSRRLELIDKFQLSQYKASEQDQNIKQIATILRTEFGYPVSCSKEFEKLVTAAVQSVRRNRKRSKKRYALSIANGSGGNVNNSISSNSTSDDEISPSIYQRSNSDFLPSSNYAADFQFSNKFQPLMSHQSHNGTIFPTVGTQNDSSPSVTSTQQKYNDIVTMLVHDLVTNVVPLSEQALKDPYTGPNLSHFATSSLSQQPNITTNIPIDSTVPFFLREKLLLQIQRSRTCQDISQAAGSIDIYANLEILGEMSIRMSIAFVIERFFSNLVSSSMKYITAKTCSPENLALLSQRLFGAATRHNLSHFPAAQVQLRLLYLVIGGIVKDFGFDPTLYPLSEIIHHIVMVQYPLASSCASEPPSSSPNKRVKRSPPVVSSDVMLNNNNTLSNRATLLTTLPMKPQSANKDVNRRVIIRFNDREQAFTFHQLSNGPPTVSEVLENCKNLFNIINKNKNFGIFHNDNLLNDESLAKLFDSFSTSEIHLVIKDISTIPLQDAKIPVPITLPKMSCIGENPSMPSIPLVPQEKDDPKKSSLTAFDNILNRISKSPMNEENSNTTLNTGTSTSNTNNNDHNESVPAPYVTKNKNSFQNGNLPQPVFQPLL
# Test: PBM E-score (8-mer binding enrichment) (E-score (-0.5 to 0.5)); higher = stronger / more preferred TF binding; most listed sequences are background and not binding sites
# Conditions: protein concentration: 200 nM; construct: GST-full length
# Procedure: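 Universal 'all 10-mer' protein binding microarrays (Agilent AMADID 015681) probed with GST-tagged S. cerevisiae TFs (full-length or DBD) made by in vitro transcription/translation (PURExpress), about 100-200 nM. Bound TF was detected with fluorescent anti-GST. Each ungapped 8-mer (which stands for itself and its reverse complement) is scored by the PBM enrichment score (E-score), a modified Wilcoxon-Mann-Whitney statistic from -0.5 to +0.5, computed with the Universal PBM Analysis Suite. Scale: above 0.35 generally sequence-specific binding.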
row,Sequence,PBM E-score
1,CTCTGGAC,0.0126
2,CTCGGCTA,-0.111
3,ATAGTACC,0.148
4,TAGCCCAA,-0.0151
5,CAACAAAC,0.165
6,GTGCACAC,0.0632
7,CTAATCCA,0.0297
8,GAACTATC,0.0026
9,CAGAACCG,0.171
10,CCGCCACC,0.0179
11,ACTCTGCG,0.114
12,ATAGCGCG,0.0968
13,ACACTCTG,0.141
14,ACCGAACG,0.087
15,GCGCGAAA,-0.00095
16,GTAAAAAC,-0.0347
17,GCTCCCTA,-0.16
18,CCTAAACG,-0.195
19,GCTCGGAA,-0.0886
20,AGTTTTAA,-0.156
21,AGGCTACG,-0.359
22,GACTTCGC,0.212

row,Sequence,PBM E-score
1,CTGTTTGA,0.127
2,CGCTGTTC,-0.093
3,AATGTAGG,-0.219
4,CCCTAGAC,-0.206
5,AGTCCCTG,-0.0472
6,AGCTGTGG,-0.103
7,AAGAGTAT,-0.21
8,AGCACAGC,0.207
9,AGGCCGAC,-0.138
10,TTGGCCAA,-0.126
11,TAACTCTA,-0.149
12,GCGCTAGA,-0.0467
13,CAGAACAC,0.0862
14,TGGCTTAA,-0.061
15,AAGGTTCA,-0.0208
16,TCGCTAGA,-0.0457
17,ATGGATCA,0.146
18,AAGCCTGG,0.0432
19,CCTGTGGC,-0.0931
20,CAAATCCC,-0.161
21,CTGTCCGA,-0.127
22,CACAAGAC,-0.0701

row,Sequence,PBM E-score
1,AACAGGCT,-0.0322
2,CATATCCA,0.103
3,ATTCTTTG,0.0125
4,ATTAAGGA,-0.105
5,AGCTGCGA,-0.0901
6,GCCATTCA,-0.052
7,GCTGATGA,0.185
8,CTAGTGAA,-0.158
9,CCAGGGAC,-0.101
10,ATGTCTTC,-0.127
11,ACCCAAAC,0.215
12,ATCCCCAC,0.122
13,CAACAGCA,0.0731
14,CAAACGAG,0.0174
15,ATATTGAA,0.0791
16,AATCATAG,0.329
17,GACCGGAC,0.0945
18,CTCTAATC,-0.015
19,CACGAGTC,0.324
20,ACCTTCGC,-0.0915
21,CAGCGGAG,0.00725
22,CAAAGTGG,-0.0313

row,Sequence,PBM E-score
1,AGTACGTA,-0.0558
2,GGTAGACC,0.00467
3,GTGACCGA,-0.0931
4,GACCGACC,0.13
5,AAGAGGCC,-0.218
6,AGCGCCCT,0.00481
7,GTTCGTGA,-0.00585
8,CAGGTCCA,-0.0638
9,CTTGCGCC,-0.0393
10,CACCACTG,-0.00719
11,ATCGACGA,-0.0477
12,CCGACTAC,0.269
13,ACGAAGCG,-0.0506
14,ACGAGAGG,-0.112
15,TACTTCTA,-0.0126
16,AATACAGA,-0.0844
17,CGTACATA,-0.0291
18,ACCCGACT,0.229
19,GCGAATCC,0.0147
20,AAGCCGAG,-0.0144
